Assay results: the supplement of paper PMC3334620
The full ranking holds about 33,000 sequences; the median of “E-score (-0.5 to 0.5)” is about -0.054, and the highest 2% start at about 0.39. This is one part of the list.

Each sequence was assayed against Ylr278c (UniProt Q05854) (assay: PBM E-score (8-mer binding enrichment) (E-score (-0.5 to 0.5)); higher = stronger / more preferred TF binding; most listed sequences are background and not binding sites). Settings: protein concentration: 200 nM; construct: GST-DNA-binding domain.
Method: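 Universal 'all 10-mer' protein binding microarrays (Agilent AMADID 015681) probed with GST-tagged S. cerevisiae TFs (full-length or DBD) made by in vitro transcription/translation (PURExpress), about 100-200 nM. Bound TF was detected with fluorescent anti-GST. Each ungapped 8-mer (which stands for itself and its reverse complement) is scored by the PBM enrichment score (E-score), a modified Wilcoxon-Mann-Whitney statistic from -0.5 to +0.5, computed with the Universal PBM Analysis Suite. Scale: above 0.35 generally sequence-specific binding.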

| Sequence | PBM E-score |
| --- | --- |
| CTTGGTTA | -0.145 |
| CCGGGCCA | 0.303 |
| GTAAAGCA | -0.0114 |
| ATAAATAC | 0.0783 |
| GCTACATA | -0.0685 |
| CCACGACC | -0.217 |
| AGCTACTC | -0.0095 |
| CACATTAC | -0.0332 |
| AAAATGGG | -0.0374 |
| AGCTCGGC | 0.187 |
| AGCCACTA | -0.203 |
| CGGTCATC | 0.226 |
| GAGAAGGA | -0.113 |
| CACTATAG | -0.289 |
| ACGTGCGG | 0.196 |
| CTCTTCTA | -0.184 |
| ATATCCTA | -0.0758 |
| GGATTTAC | 0.287 |
| CCCCACGG | 0.206 |
| GAATCTCA | 0.0136 |
| GAAGGTAA | 0.00031 |
| CTCAGATC | -0.0641 |
| ACGCCGTC | 0.276 |
| ACTAATGC | 0.126 |
| AAGAACTG | -0.159 |

| Sequence | PBM E-score |
| --- | --- |
| AGCCTGAT | -0.197 |
| GGCGTCGA | 0.0785 |
| ATACGCAC | 0.0272 |
| ATCGTCCA | -0.0607 |
| TGTGGGAA | -0.19 |
| CCGACCTC | 0.201 |
| CTCAGACA | -0.102 |
| AATCATTG | -0.358 |
| GGTTATGA | -0.125 |
| AAGCTCCC | -0.139 |
| GGTGATCA | -0.177 |
| CAGGCTCA | -0.342 |
| ACGGAGTA | 0.452 |
| AGACATTG | -0.181 |
| TACTGAAA | 0.0164 |
| GGCTAAGA | -0.105 |
| AGCGCCGG | 0.388 |
| AACCAGTT | -0.0634 |
| CGTACACC | 0.182 |
| GCCCCGAC | 0.278 |
| AAAGGGCT | -0.165 |
| ACGCGCGT | 0.0445 |
| AGCCTCGG | 0.152 |
| TATTATAA | -0.15 |
| AGATGTCA | -0.00393 |

| Sequence | PBM E-score |
| --- | --- |
| ACGTACAC | -0.0862 |
| CCAAAACG | -0.0714 |
| TACACCAA | -0.0449 |
| CCACAGGA | -0.0449 |
| AAGAGCCC | -0.107 |
| AGGCCACT | -0.162 |
| TCGCAGAA | -0.159 |
| AATAGTCT | -0.223 |
| TACCAAGA | -0.0469 |
| ATGTCGGC | 0.0736 |
| GCAGTTGA | 0.0307 |
| CCCCAGCA | -0.0256 |
| AACTGCCC | -0.138 |
| ACAGTTTC | -0.0443 |
| CTGGCGTC | -0.271 |
| CACCCGAC | 0.0867 |
| ATTCCCTA | -0.0227 |
| CCTTTTCA | -0.223 |
| AAGCGCCA | -0.309 |
| AGTCCAAA | -0.107 |
| ACTTCAAT | 0.045 |
| ATTGTTGC | -0.197 |
| CGACTGCA | -0.158 |
| AACCGACT | 0.0682 |
| AACAAACC | 0.102 |

| Sequence | PBM E-score |
| --- | --- |
| AGTGACTA | -0.0559 |
| ACAGATGC | -0.19 |
| AGGCCATG | -0.266 |
| GCAAAAAC | 0.0286 |
| CTCAAGAC | 0.00013 |
| ACCTATAG | -0.307 |
| TCAGTAAA | -0.0695 |
| CCTCATAC | -0.149 |
| CGCCGCGA | 0.258 |
| GTTAACTA | 0.0878 |
| CGTCCCAA | -0.212 |
| CTCACCCC | 0.165 |
| CATCTCCC | 0.216 |
| ATGGCCAC | -0.259 |
| TAAGAGGA | -0.0178 |
| ATGAAAAT | -0.0688 |
| CAGTTCAG | -0.159 |
| AAAATTAC | -0.0512 |
| AAGGCGAG | -0.252 |
| GTTGAAAA | -0.0172 |
| CCGTCTAA | 0.211 |
| CTGTAAGA | -0.123 |
| GAATTGGC | -0.141 |
| ATAAACAT | 0.00469 |
| GTATGCAA | -0.126 |

| Sequence | PBM E-score |
| --- | --- |
| ACCGTGTA | -0.233 |
| CAATCCAC | -0.122 |
| TAAGCTGA | -0.00468 |
| AACCGGTA | 0.22 |
| TAACCTAA | -0.173 |
| CTGAAGAA | -0.122 |
| CTCACCAC | -0.0698 |
| TCATATAA | -0.21 |
| TAAATTCA | -0.182 |
| CCACCAGA | -0.241 |
| GTACATCA | -0.00512 |
| ATCGAATA | -0.242 |
| AGCTGCCT | -0.251 |
| CTCTAGAA | -0.299 |
| GGGAGAGA | -0.201 |
| CCTTGGGC | -0.0153 |
| AGCTTTAG | -0.285 |
| ACGGTCCG | 0.299 |
| GGGCACAA | -0.108 |
| GTCGAAGA | -0.091 |
| CGACGTAC | -0.084 |
| CGTAGACG | -0.0304 |
| AACAACTC | -0.15 |
| CGCCCTAC | -0.0948 |
| GCGTGTAA | -0.192 |

| Sequence | PBM E-score |
| --- | --- |
| CCCATTAG | -0.353 |
| ATATGAGA | -0.0316 |
| ACTAATTG | -0.0779 |
| GAACGTGC | -0.0528 |
| ACGTCGAG | -0.235 |
| GAGAGTGC | -0.226 |
| CGTGCAAA | -0.198 |
| GGCAAACA | 0.0472 |
| CCAGATCC | -0.0138 |
| ACGAAGAG | -0.128 |
| AGAGCTAA | -0.171 |
| CCGGATGC | 0.358 |
| AAGGAGAA | -0.0157 |
| ATACTCTG | 0.0255 |
| ATAGTTGA | -0.0829 |
| ACCCAACA | -0.0515 |
| CTTGATTC | -0.101 |
| ATCTAATC | 0.0282 |
| ACAGAAGG | -0.159 |
| CTTGAGTA | 0.11 |
| CTAGTAAG | -0.129 |
| ACGCTACT | 0.0556 |
| ATTTATAA | 0.0967 |
| CAGGCAGC | -0.08 |
| AGATCATC | -0.198 |

| Sequence | PBM E-score |
| --- | --- |
| ACAGCCTG | -0.23 |
| CGGCACAC | 0.148 |
| CATGATGG | -0.225 |
| GAAGCAGC | -0.143 |
| AGGTAGCC | -0.194 |
| CATCGGCC | 0.249 |
| CATATTGC | -0.0666 |
| ATTGTTGA | -0.161 |
| AAGTAGTG | -0.172 |
| ATAACACA | -0.12 |
| ATGCAAGC | -0.0679 |
| GGTAGCAA | -0.331 |
| AGTTAGAC | -0.0203 |
| ATAGATCA | -0.105 |
| AGTCAGAA | -0.148 |
| CTGGCAAC | -0.14 |
| TATCTAGA | -0.325 |
| AACGGACT | 0.328 |
| ACGGCACA | -0.0496 |
| ACATCCAA | -0.151 |
| GTCCTCCA | -0.114 |
| GTTTATTA | 0.0781 |
